Measurements as given in the CheMixHub viscosity set.

In the case of `CCCCO`, the viscosity (298.15 K, 101.33 kPa) is reported as 2.484 mPa·s [study A] and 2.525 ± 0.017 mPa·s [study B] and 2.484 ± 0.059 mPa·s [study C] and 2.509 ± 0.015 mPa·s [study D], the viscosity (303.15 K, 101.33 kPa) is reported as 2.174 ± 0.052 mPa·s [study A] and 2.324 ± 0.12 mPa·s [study B] and 2.324 ± 0.11 mPa·s [study C] and 2.209 ± 0.027 mPa·s [study D] and the viscosity (308.15 K, 101 kPa) is reported as 2.254 ± 0.017 mPa·s [study A] and 1.574 ± 0.022 mPa·s [study B] and 2.047 ± 0.018 mPa·s [study C] and 1.834 ± 0.068 mPa·s [study D] and 1.927 ± 0.024 mPa·s [study E]. For the same compound, the viscosity (313.15 K, 101.33 kPa) was 1.705 ± 0.011 mPa·s [study A] and 1.817 ± 0.012 mPa·s [study B] and 1.817 ± 0.014 mPa·s [study C] and 1.817 ± 0.022 mPa·s [study D].

± gives the uncertainty stated by the source. Not every entry of the source has a single result; some have several. This is not the full list of results. The source may hold further records. Values given together are repeats (runs, samples, wells, individuals or studies). Marks in square brackets tell the records apart. The letters are not those of the source and start again with each entry.
